# Some of the results follow.
# B1: DC-ASGPR L+GEE (Homo sapiens) (protein)
# chain: MTRTYENFQYLENKVKVQGFKNGPLPLQSLLQRLRSGPCHLLLSLGLGLLLLVIICVVGFQNSKFQRDLVTLRTDFSNFTSNTVAEIQALTSQGSSLEETIASLKAEVEGFKQERQAGVSELQEHTTQKAHLGHCPHCPSVCVPVHSEMLLRVQQLVQDLKKLTCQVATLNNNGEEASTEGTCCPVNWVEHQDSCYWFSHSGMSWAEAEKYCQLKNAHLVVINSREEQNFVQKYLGSAYTWMGLSDPEGAWKWVDGTDYATGFQNWKPGQPDDWQGHGLGGGEDCAHFHPDGRWNDDVCQRPYHWVCEAGLGQTSQESH
# Assays:
# Assay in all cases: glycan array binding signal (z-score within array); higher = stronger binding
# Conditions in all cases: glycan notation: IUPAC condensed, linker removed
# [1] = target: Neu5Ac(a2-3)Gal(b1-3)GlcNAc(b1-6)GalNAc
# In short: (§1)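 Glycan array binding is given as a within-array Z-score, which can be read as non-binding when negative. The arrays, 3228 of them, came from the Consortium for Functional Glycomics database and were retained only where the protein sequence was available. Z-scores were averaged across arrays of the same protein sequence at different concentrations or buffers and across linkers.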
# [2] = target: Neu5Ac(a2-3)Gal(b1-3)GlcNAc6S
# In short: as §1
# [3] = target: Neu5Ac(a2-3)Gal(b1-3)[Fuc(a1-4)]GlcNAc
# In short: as §1
# [4] = target: Neu5Ac(a2-3)Gal(b1-3)[Fuc(a1-4)]GlcNAc(b1-3)Gal(b1-3)[Fuc(a1-4)]GlcNAc
# In short: as §1
# [5] = target: Neu5Ac(a2-3)Gal(b1-3)[Fuc(a1-4)]GlcNAc(b1-3)Gal(b1-4)[Fuc(a1-3)]GlcNAc
# In short: as §1
# [6] = target: Neu5Ac(a2-3)Gal(b1-3)[GlcNAc(b1-6)]GalNAc
# In short: as §1
# [7] = target: Neu5Ac(a2-3)Gal(b1-3)[Neu5Ac(a2-6)]GalNAc
# In short: as §1
# [8] = target: Neu5Ac(a2-3)Gal(b1-3)[Neu5Ac(a2-6)]GlcNAc(b1-3)[Fuc(a1-3)[Gal(b1-4)]GlcNAc(b1-6)]Gal(b1-4)Glc
# In short: as §1
# [9] = target: Neu5Ac(a2-3)Gal(b1-3)]Neu5Ac(a2-3)Gal(b1-4)]GlcNAc
# In short: as §1
# [10] = target: Neu5Ac(a2-3)Gal(b1-4)Glc
# In short: as §1
# [11] = target: Neu5Ac(a2-3)Gal(b1-4)GlcNAc
# In short: as §1
# [12] = target: Neu5Ac(a2-3)Gal(b1-4)GlcNAc(b1-2)Man
# In short: as §1
# [13] = target: Neu5Ac(a2-3)Gal(b1-4)GlcNAc(b1-2)Man(a1-3)[GlcNAc(b1-4)][Neu5Ac(a2-3)Gal(b1-4)GlcNAc(b1-2)Man(a1-6)]Man(b1-4)GlcNAc(b1-4)GlcNAc
# In short: as §1
# [14] = target: Neu5Ac(a2-3)Gal(b1-4)GlcNAc(b1-2)Man(a1-3)[Neu5Ac(a2-3)Gal(b1-4)GlcNAc(b1-2)Man(a1-6)]Man(b1-4)GlcNAc(b1-4)GlcNAc
# In short: as §1
# [15] = target: Neu5Ac(a2-3)Gal(b1-4)GlcNAc(b1-2)Man(a1-3)[Neu5Ac(a2-3)Gal(b1-4)GlcNAc(b1-2)Man(a1-6)]Man(b1-4)GlcNAc(b1-4)[Fuc(a1-6)]GlcNAc
# In short: as §1
# [16] = target: Neu5Ac(a2-3)Gal(b1-4)GlcNAc(b1-2)Man(a1-3)[Neu5Ac(a2-6)Gal(b1-4)GlcNAc(b1-2)Man(a1-6)]Man(b1-4)GlcNAc(b1-4)GlcNAc
# In short: as §1
# [17] = target: Neu5Ac(a2-3)Gal(b1-4)GlcNAc(b1-2)[Neu5Ac(a2-3)Gal(b1-4)GlcNAc(b1-4)]Man(a1-3)[GlcNAc(b1-4)][Neu5Ac(a2-3)Gal(b1-4)GlcNAc(b1-2)[Neu5Ac(a2-3)Gal(b1-4)GlcNAc(b1-6)]Man(a1-6)]Man(b1-4)GlcNAc(b1-4)GlcNAc
# In short: as §1
# [18] = target: Neu5Ac(a2-3)Gal(b1-4)GlcNAc(b1-2)[Neu5Ac(a2-3)Gal(b1-4)GlcNAc(b1-4)]Man(a1-3)[GlcNAc(b1-4)][Neu5Ac(a2-3)Gal(b1-4)GlcNAc(b1-4)Man(a1-6)]Man(b1-4)GlcNAc(b1-4)GlcNAc
# In short: as §1
# [19] = target: Neu5Ac(a2-3)Gal(b1-4)GlcNAc(b1-2)[Neu5Ac(a2-3)Gal(b1-4)GlcNAc(b1-6)]Man(a1-6)[Neu5Ac(a2-3)Gal(b1-4)GlcNAc(b1-2)Man(a1-3)][GlcNAc(b1-4)]Man(b1-4)GlcNAc(b1-4)GlcNAc
# In short: as §1
# [20] = target: Neu5Ac(a2-3)Gal(b1-4)GlcNAc(b1-3)Gal
# In short: as §1
# [21] = target: Neu5Ac(a2-3)Gal(b1-4)GlcNAc(b1-3)Gal(b1-3)GlcNAc
# In short: as §1
# [22] = target: Neu5Ac(a2-3)Gal(b1-4)GlcNAc(b1-3)Gal(b1-4)GlcNAc
# In short: as §1
# [23] = target: Neu5Ac(a2-3)Gal(b1-4)GlcNAc(b1-3)Gal(b1-4)GlcNAc(b1-2)Man(a1-3)[Neu5Ac(a2-3)Gal(b1-4)GlcNAc(b1-3)Gal(b1-4)GlcNAc(b1-2)Man(a1-6)]Man(b1-4)GlcNAc(b1-4)GlcNAc
# In short: as §1
# [24] = target: Neu5Ac(a2-3)Gal(b1-4)GlcNAc(b1-3)Gal(b1-4)GlcNAc(b1-3)Gal(b1-4)GlcNAc
# In short: as §1
# [25] = target: Neu5Ac(a2-3)Gal(b1-4)GlcNAc(b1-3)Gal(b1-4)GlcNAc(b1-3)Gal(b1-4)GlcNAc(b1-2)Man(a1-3)[Neu5Ac(a2-3)Gal(b1-4)GlcNAc(b1-3)Gal(b1-4)GlcNAc(b1-3)Gal(b1-4)GlcNAc(b1-2)Man(a1-6)]GalNAc
# In short: as §1
# [26] = target: Neu5Ac(a2-3)Gal(b1-4)GlcNAc(b1-3)Gal(b1-4)GlcNAc(b1-3)GalNAc
# In short: as §1
# [27] = target: Neu5Ac(a2-3)Gal(b1-4)GlcNAc(b1-3)Gal(b1-4)GlcNAc(b1-3)[Neu5Ac(a2-3)Gal(b1-4)GlcNAc(b1-3)Gal(b1-4)GlcNAc(b1-6)]GalNAc
# In short: as §1
# [28] = target: Neu5Ac(a2-3)Gal(b1-4)GlcNAc(b1-3)Gal(b1-4)GlcNAc(b1-6)[Gal(b1-3)]GalNAc
# In short: as §1
# [29] = target: Neu5Ac(a2-3)Gal(b1-4)GlcNAc(b1-3)Gal(b1-4)[Fuc(a1-3)]GlcNAc
# In short: as §1
# [30] = target: Neu5Ac(a2-3)Gal(b1-4)GlcNAc(b1-3)GalNAc
# In short: as §1
binder,measurement,setting,value
B1,glycan array binding signal (z-score),[1],6.64
same,glycan array binding signal (z-score),[2],-0.488
same,glycan array binding signal (z-score),[3],-0.265
same,glycan array binding signal (z-score),[4],-0.039
same,glycan array binding signal (z-score),[5],-0.537
same,glycan array binding signal (z-score),[6],-0.297
same,glycan array binding signal (z-score),[7],0.342
same,glycan array binding signal (z-score),[8],-0.338
same,glycan array binding signal (z-score),[9],-0.287
same,glycan array binding signal (z-score),[10],-0.376
same,glycan array binding signal (z-score),[11],-0.087
same,glycan array binding signal (z-score),[12],0.423
same,glycan array binding signal (z-score),[13],0.2
same,glycan array binding signal (z-score),[14],-0.038
same,glycan array binding signal (z-score),[15],0.023
same,glycan array binding signal (z-score),[16],-0.042
same,glycan array binding signal (z-score),[17],-0.155
same,glycan array binding signal (z-score),[18],-0.188
same,glycan array binding signal (z-score),[19],-0.257
same,glycan array binding signal (z-score),[20],-0.336
same,glycan array binding signal (z-score),[21],-0.203
same,glycan array binding signal (z-score),[22],-0.211
same,glycan array binding signal (z-score),[23],-0.164
same,glycan array binding signal (z-score),[24],-0.22
same,glycan array binding signal (z-score),[25],0.18
same,glycan array binding signal (z-score),[26],-0.216
same,glycan array binding signal (z-score),[27],-0.122
same,glycan array binding signal (z-score),[28],-0.553
same,glycan array binding signal (z-score),[29],-0.228
same,glycan array binding signal (z-score),[30],0.559

# Source: the supplement of paper PMC8728848
